Measurements taken from PubChem BioAssay AID902 (National Center for Advancing Translational Sciences (NCATS), 2007).
“And” between values parts separate entries of the source, which are not always exact repeats. Equal entries are not always repeated. Hit rate of the full screen: of about 130,000 compounds, about 1,900 (1.5%) were called active. The inconclusive results got no clear call from the source; some entries with a clear call stand among them for comparison. Calls follow the shape of the dose curve; as a rule, active = well fitted cell-killing curve with a large enough effect; inconclusive = small, poorly fitted or top-dose-only effect; inactive = no such curve, though single readings can be large or run the other way. Where the call is inconclusive, the potency comes from a doubtful curve fit.

Test: qHTS Screen for Compounds that Selectively Target Cancer Cells with p53 Mutations: Cytotoxicity of p53ts Cells at the Nonpermissive Temperature; also: nearly all actives have a fitted effect of over 55% in size
Settings: H1299-p53A138V viability at 39C, ATP luminescence, 24 h; activity change, negative = cell killing: at 46.1 µM (top of the series)
% is scaled to controls: 0 for no effect and ±100 for the full control effect; potency is read from the fitted curve at half-maximal effect; tags tell the direction and shape of the fitted curve.

Row | Compound | Potency | activity change, negative = cell killing
1 | COc1cccc(CNC(=O)CCn2c(=O)c3cccn3c3ccc(F)cc32)c1OC | inconclusive: 3.55 µM [cytotoxic, partial curve] | 
2 | Cc1nc2nc(NC(=O)c3cccc(Cl)c3)[nH]n2c(=O)c1Cc1ccccc1 |  | inactive: -20.4%
3 | CC(=O)c1cccc(NS(=O)(=O)c2ccc3[nH]c4c(c3c2)CCCCCC4)c1 | inconclusive: 0.0316 µM [cytotoxic, full curve, poor fit] | 
4 | O=C(O)c1cccc(Cl)c1Cl |  | inactive: 0.906%
5 | Cn1c(=O)c2c(nc(C(=N)SCC(=O)O)n2C)n(C)c1=O |  | inactive: -4.91% [at 9.22 µM]
6 | O=C(Nc1nc(-c2ccccc2)cs1)c1cccc([N+](=O)[O-])c1C(=O)O | inconclusive: 5.62 µM [cytotoxic, single point] | 
7 | Cc1ccc(NC(=O)CN(c2ccccc2)S(=O)(=O)N(C)C)cc1Cl | inconclusive: 12.6 µM [cytotoxic, single point] | 
8 | COc1ccc(NC(=O)CCS(=O)(=O)c2nc(-c3cccs3)cc(C(F)(F)F)n2)cc1OC | active: 3.98 µM | 
9 | O=C(CCCCCn1c(=O)c2sccc2n(CC(=O)Nc2cccc(Cl)c2)c1=O)NCc1ccc2c(c1)OCO2 | inconclusive: 12.6 µM [cytotoxic, single point] | 
10 | CCc1cccc(NC(=O)CSc2ncc3c(n2)-c2ccc(Cl)cc2N(Cc2ccccc2)S3(=O)=O)c1 | inconclusive: 12.6 µM [cytotoxic, single point] | 
11 | COc1ccc(NC(=O)c2cn(CC(C)C)c(=O)c3cc(OC)c(OC)cc23)cc1Cl |  | inactive: -12.8%
12 | CNC1=C(Cl)C(=O)c2ccncc2C1=O | active: 3.98 µM | 
13 | COc1ccccc1CNc1ncnc2ccc(-c3ccoc3)cc12 |  | inactive: -11.6%
14 | Cc1ccc(CNc2cc(-c3nn4c(C)nnc4s3)ccc2C)s1 |  | inactive: -11.6%
15 | Cc1ccc(NC(=O)NCCN2C(=O)C3C4C=CC(C4)C3C2=O)cc1 (configuration not stated) | inconclusive: 10 µM [cytotoxic, partial curve] | 
16 | Cc1cc2nc(-c3ccc(SCC(=O)N4CCOCC4)nc3)[nH]c2cc1C | active: 7.94 µM | 
17 | O=C(COC(=O)c1cc(-c2cccs2)nc2ccccc12)c1ccccc1 |  | inactive: 19%
18 | Cn1cc(-c2nc3cnc(N4CCNCC4)nc3n(CCc3ccccc3)c2=O)c2ccccc21 | inconclusive: 31.6 µM [cytotoxic, single point] | 
19 | CC(C)COc1ccc(CN=C(N)N=C(N)N)cc1Cl | inconclusive: 35.5 µM [cytotoxic, single point] | 
20 | CC1CCN(c2ncnc3c2cnn3-c2ccc(F)cc2)CC1 | inconclusive: 15.8 µM [cytotoxic, partial curve] | 
21 | O=C(NCCc1cccs1)c1ccc(Cn2c(SCc3ccc(F)cc3)nc3cccnc32)cc1 | active: 15.8 µM | 
22 | COc1ccc(C(=O)CN2CCN(S(=O)(=O)c3ccc(C(C)C)cc3)CC2)cc1 | inconclusive: 0.251 µM [cytotoxic, full curve, poor fit] | 
23 | O=C(Nc1ccccc1N1CCCC1)c1ccc(Br)o1 |  | inactive: -6.08%
24 | O=C(Nc1ccc2oc(=O)ccc2c1)c1ccco1 | inconclusive: 25.1 µM [cytotoxic, single point] | 

Row | Compound | Potency | activity change, negative = cell killing
25 | COc1cccc(-c2cncnc2N(C)Cc2ccco2)c1 |  | inactive: -3.83%
26 | CCOc1ccc(Nc2nc3c(S(=O)(=O)c4cccc(Cl)c4)nnn3c3ccsc23)cc1 | inconclusive: 5.01 µM [cytotoxic, full curve] | 
27 | COc1ccc(Cn2c(C(=O)O)c(CNCCc3ccco3)c3ccc(C)cc32)cc1 | inconclusive: 20 µM [cytotoxic, partial curve] | 
28 | Cc1nn(CCCC(=O)NCCc2ccc(Cl)cc2)c(=O)c2c1sc1ccccc12 | active: 20 µM | 
29 | CN(c1ccccc1)S(=O)(=O)c1nnc(NC(=O)C2CCCCC2)s1 | active: 15.8 µM | 
30 | Cc1c(C(=O)NCc2ccccn2)sc2nc(-c3ccc(F)cc3)cn12 |  | inactive: -0.992%
31 | Cc1ccccc1N(C)S(=O)(=O)c1nnc(NC(=O)c2ccccc2F)s1 |  | inconclusive: -36.3% [cytotoxic]
32 | O=C(CCS(=O)(=O)c1ccccc1)Nc1ccccc1-c1nc2ccccc2s1 | inconclusive: 0.0112 µM [cytotoxic, full curve, poor fit] | 
33 | Nc1ncnc2c1nc(Cl)n2C1OC(CO)C(O)C1O (configuration not stated) | inconclusive: 10 µM [cytotoxic, partial curve] | 
34 | CCC(=O)Nc1cnc(NC(=O)c2cccc(F)c2)cc1C | inconclusive: 6.31 µM [cytotoxic, partial curve] | 
35 | COc1cccc(CNC(=O)c2oc3c(c2C)-c2nn(Cc4cccc(Cl)c4)cc2CC3)c1 | inconclusive: 31.6 µM [cytotoxic, single point] | 
36 | C/C(=C\C(=O)c1ccc(C)cc1)Nc1cccc(O)c1 |  | inactive: -26.6%
37 | Cc1ccc(C(C)C)c(OCC(=O)Nc2ccccc2N2CCN(C)CC2)c1 | inconclusive: 25.1 µM [cytotoxic, single point] | 
38 | CCc1cccc(C)c1NC(=O)Cn1cc2c(n1)CCCC2 |  | inactive: 0.251%
39 | C(=C\c1ccccc1)/CN1CCN(c2ncnc3c2oc2ccccc23)CC1 | active: 12.6 µM | 
40 | Cc1nn(C)c2c1c(C(F)(F)F)cc(=O)n2CC(=O)N1CCC(C)CC1 |  | inactive: -19.7%
41 | CC(C)COc1ccc(-c2cc(C(=O)NN)[nH]n2)cc1 | inconclusive: 10 µM [cytotoxic, partial curve, poor fit] | 
42 | COc1ccc(C)cc1Nc1nc(N)c2cc(OC)c(OC)cc2n1 | active: 20 µM | 
43 | Cc1cc(C)n(-c2nc3sc4c(c3c3nnc(SCC(N)=O)n23)CC(C)(C)OC4)n1 | inconclusive: 28.2 µM [cytotoxic, single point] | 
44 | COc1ccc(NC(=O)c2oc3ccccc3c2NC(=O)Cc2cccs2)c(OC)c1 | inconclusive: 10 µM [cytotoxic, partial curve] | 
45 | CN(C)CCNC(=O)c1ccc2c(c1)N(Cc1c(F)cccc1Cl)C(=O)c1ccccc1S2 | inconclusive: 31.6 µM [cytotoxic, single point] | 
46 | c1ccc(CNc2ccnc(-c3ccc4c(c3)OCO4)n2)cc1 | inconclusive: 25.1 µM [cytotoxic, single point] | 
47 | Cc1c(Cl)ccc2sc(N3CCN(C(=O)CS(=O)(=O)c4ccccc4)CC3)nc12 | inconclusive: 7.94 µM [cytotoxic, partial curve] | 
48 | Oc1ccc(-c2nc(-c3ccc(O)c(O)c3)cs2)cc1 |  | inactive: -21.4%

Row | Compound | Potency | activity change, negative = cell killing
49 | CC(=O)Nc1ccc2c(c1)ncn2C |  | inactive: 7.53%
50 | CCCCCCC1CCC(C(=O)NC(C(=O)O)C(C)C)CC1 (configuration not stated) |  | inactive: 21.6%
51 | Cc1ccc(-n2ncc(C(=O)NCCCN3CCc4ccccc4C3)c2C2CCN(C(=O)OC(C)(C)C)CC2)cc1C | inconclusive: 31.6 µM [cytotoxic, single point] | 
52 | CCOC(=O)c1cnn(-c2ccccn2)c1N | inconclusive: 15.8 µM [cytotoxic, single point] | 
53 | O[C@@H](c1cc(-c2ccccc2)nc2c1ccc1ccccc12)[C@@H]1CCCCN1 |  | inactive: -8.27% [at 9.22 µM]
54 | COc1ccc(NC(=O)CN(c2ccc(C)cc2)S(=O)(=O)c2cccs2)cc1OC |  | inactive: 6.87%
55 | Cc1cccc(C(=O)Nc2nnc(SCc3cc(=O)n4cccc(C)c4n3)s2)c1 |  | inactive: 4.64%
56 | CCOC(=O)c1cccc(NC(=O)c2cc(-c3ccc(Cl)s3)nc3ccccc23)c1 | inconclusive: 12.6 µM [cytotoxic, partial curve] | 
57 | OC(CN1CCNCC1)Cn1c2ccc(Br)cc2c2cc(Br)ccc21 (configuration not stated) | active: 12.6 µM | 
58 | Cc1cc2n(n1)C(c1ccc(N(C)C)cc1)Nc1ccccc1-2 (configuration not stated) | inconclusive: 31.6 µM [cytotoxic, single point] | 
59 | CCOC(=O)c1ccc2ncc(C(=O)OCC)c(Nc3ccc(C)c(Br)c3)c2c1 | inconclusive: 12.6 µM [cytotoxic, partial curve] | 
60 | CCC(C(=O)NCc1ccccc1)n1ncn2c(cc3occc32)c1=O (configuration not stated) |  | inactive: 8.55%
61 | CCOc1ccccc1NS(=O)(=O)c1ccc2oc(=O)c3ncn(C)c3c2c1 | active: 20 µM | 
62 | CCOC(=O)c1ccc(NC(=O)CC2Nc3cc(C)c(C)cc3NC2=O)cc1 (configuration not stated) | inconclusive: 15.8 µM [cytotoxic, partial curve] | 
63 | Cc1ccc2c(c1)-c1c(cnn1CC(=O)N1CCN(c3cccc(C(F)(F)F)c3)CC1)CO2 | inconclusive: 31.6 µM [cytotoxic, single point] | 
64 | Cc1nc2c(-c3ccccc3)c(C)[nH]n2c(=O)c1Cl | inconclusive: 31.6 µM [cytotoxic, single point] | 
65 | CCCCNC(=O)c1cnn2c(C)c(Cc3c(C)cc(C)cc3C)c(C)nc12 | active: 15.8 µM | 
66 | C/C(CCN1CCCc2nc(C)c(C)cc21)=N\O[C@@H](C)c1cn([C@H](CO)Cc2ccccc2)nn1 |  | inactive: 1.98% [at 9.22 µM] and inactive: -1.04% [at 9.22 µM]
67 | COc1ccc(S(=O)(=O)N(CC(=O)NCCSc2ccccc2)c2ccc(Cl)cc2)cc1 |  | inactive: 6.26%
68 | O=C(Sc1nnc(-c2ccccc2)o1)N1c2ccccc2Sc2ccccc21 | inconclusive: 31.6 µM [cytotoxic, single point] | 
69 | COc1ccc(-c2cn3nc(SCC(=O)Nc4ccccc4F)ccc3n2)cc1 | inconclusive: 3.16 µM [cytotoxic, full curve] | 
70 | O=c1ccnc(S/C=C/c2ccccc2)[nH]1 | inconclusive: 12.6 µM [cytotoxic, partial curve] | 
71 | CCN(Cc1ccccc1)S(=O)(=O)c1ccc(C(=O)Nc2nnc(C3CC3)o2)cc1 | inconclusive: 10 µM [cytotoxic, partial curve] | 
72 | CCOc1ccc(-c2nc(C#N)c(N3CCN(Cc4ccccc4)CC3)o2)cc1 |  | inactive: 3.28%
